Laboratory results taken from PubChem BioAssay AID1347417 (National Center for Advancing Translational Sciences (NCATS), 2020).
The campaign covered roughly 120,000 compounds. About 5,300 (4.4%) were called active. The inconclusive results got no clear call from the source; some entries with a clear call stand among them for comparison. Calls come from the whole dose curve; as a rule, active = well fitted inhibition curve with a large enough effect; inconclusive = small, poorly fitted or top-dose-only effect; inactive = no such curve, though single readings can be large or run the other way. Potencies of inconclusive entries are doubtful fits and often do not repeat.

Assay: qHTS Primary assay for Inhibitors of Plasmodium falciparum Dd2 growth in vitro; note: nearly all actives have a fitted effect of over 65% in size
Details: P. falciparum Dd2 growth, SYBR Green, 72 h; series mostly up to 28.9 µM
Procedure, shortened: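 Infected erythrocytes (Dd2, 0.3% parasitemia, 2.5% hematocrit final) are added to compound in RPMI-1640/Albumax II medium, grown 72 h at 37C in low oxygen, then lysed with saponin/Triton-X containing SYBR Green and read by fluorescence.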
Potency is the fitted concentration of half-maximal effect; tags give direction and shape of the fitted curve.

| SMILES | Potency | outcome |
| --- | --- | --- |
| COc1ccc(CNC(=O)CCc2c(C)c3cc4c(C)c(C)oc4cc3oc2=O)cc1 | inconclusive: 10 µM [inhibitor, single point] | – |
| Cc1noc(C)c1S(=O)(=O)N1CCCN(Cc2ccncc2)C(c2ccccc2)CC(=O)NCC1 (stereo not given) | active: 1.12 µM | – |
| COc1cc(-c2onc(C)c2C(=O)NCCCOC(C)C)cc(OC)c1OC | inconclusive: 7.94 µM [inhibitor, partial curve] | – |
| CCc1ccc(NC(=O)CSc2ccc3nc(-c4ccc(OC)cc4)cn3n2)cc1 | inconclusive: 10 µM [inhibitor, single point] | – |
| CCC(=O)N1CCC(O)(c2ccccc2)[C@H](N2CCCC2)C1 (stereo not given in full) | inconclusive: 0.891 µM [inhibitor, single point] | – |
| Cc1nc(C(=O)N2CCOc3c(O)cc(-c4cccc(Cl)c4)cc3C2)cs1 | inactive | – |
| CC(C)n1nc(OC(C)(C)C(=O)NCCOc2ccccc2)c2cc(CN3CCOCC3)ccc21 | inconclusive: 14.1 µM [inhibitor, partial curve, poor fit] | – |
| CN(CC(=O)N[C@H]1[C@H]2CCO[C@H]2[C@@H]1N(C)C)Cc1ccc(F)cc1 | inconclusive: 11.2 µM [inhibitor, single point] | – |
| C=CCOc1ccc(CNC2CCN(S(C)(=O)=O)CC2)cc1CC=C | inconclusive: 5.62 µM [inhibitor, partial curve, poor fit] | – |
| O=C1[C@H]2CN(Cc3cc(Br)ccc3F)C[C@H]2C(=O)N1CCc1ccccc1 | inconclusive: 17.8 µM [inhibitor, single point] | – |
| COCc1ncc(C)n1CCNC(=O)Nc1ccc(C)c(C)c1 | inactive | – |
| Cc1cc(S(=O)(=O)N[C@@H]2CN(C)C[C@H]2CN(C)C)ccc1F | inconclusive: 4.47 µM [inhibitor, partial curve, poor fit] | – |
| O=C(Nc1cccc(F)c1)N1CCCC(Cn2c(C3CC3)nc3cccnc32)C1 (stereo not given) | inconclusive: 3.16 µM [inhibitor, single point] | – |
| Cc1oc(-c2ccc(C(=O)NCCN(C)C)cc2)nc1CS(=O)(=O)c1ccccc1 | inactive | – |
| COc1ccc(OC)c(NC(=O)c2cnc(Nc3ccc(C)c(Cl)c3)c3ccccc23)c1 | inconclusive: 10 µM [inhibitor, single point] | – |
| CN(C)C(=O)N1CCCC(C(=O)NCc2nc(C3CCCCC3)no2)C1 (stereo not given) | inconclusive: 0.562 µM [inhibitor, full curve, poor fit] | – |
| COc1cccc(CC(=O)N[C@@H]2C[C@H](Cn3cc(-c4cccnc4)nn3)[C@@H](O)[C@H]2O)c1 | inconclusive: 12.6 µM [inhibitor, single point] | – |
| COCCn1nc2n(c1=O)CCN(C(=O)COc1ccc(Cl)cc1C)CC2 | inconclusive: 3.98 µM [inhibitor, partial curve, poor fit] | – |
| Cc1cccc(OCC2(CNCc3cccnc3)C[C@@H](O)[C@@H](O)C2)n1 (stereo not given in full) | inconclusive: 2 µM [inhibitor, full curve, poor fit] | – |
| CC(C)c1noc(-c2cccn3c(CNC(=O)Cc4cccc(F)c4)nnc23)n1 | inactive | – |
| Cc1cc(C)c([S+](=O)([O-])c2nnn3c2nc(N2CCCCC2)c2ccccc23)c(C)c1 | inconclusive: 7.94 µM [inhibitor, partial curve, poor fit] | – |
| COc1ccc(CC(=O)N2C[C@@H](CO)[C@H](c3ccncc3)C2)cc1 | inactive | – |

| SMILES | Potency | outcome |
| --- | --- | --- |
| CCCCCN1C(C(=O)c2ccccc2)=C(NC(=O)c2ccc(C)cc2)c2ccccc2S1(=O)=O | inconclusive: 17.8 µM [inhibitor, single point] | – |
| COc1ccc(-c2nc(C3CC3)nc3c2CCN([S+](=O)([O-])c2ccccc2)CC3)cc1 | active: 7.94 µM | – |
| CCOc1ccc(NC(=O)c2c(NCc3cccnc3)sc3c2CCC(C)C3)cc1 (stereo not given) | inactive | – |
| CC1(C(=O)NCCN2CCCCC2)CCCCC(=O)N1 (stereo not given) | inconclusive: 7.08 µM [inhibitor, partial curve] | – |
| Cc1ccc(CNC(=O)N2CCCC(c3noc(COc4ccccc4)n3)C2)cc1 (stereo not given) | inconclusive: 7.94 µM [inhibitor, partial curve, poor fit] | – |
| c1cncc(CN2CCc3c(sc4ncnc(N5CCOCC5)c34)C2)c1 | inconclusive: 10 µM [inhibitor, partial curve] | – |
| COc1cc(NC(=O)Cn2c(N3CCN(c4ccccc4)CC3)nc(C)cc2=O)cc(OC)c1 | active: 6.31 µM | – |
| CC(=O)N1CCCN(Cc2nc3c(n2Cc2ccccc2)C(=O)N(Cc2cccc(Cl)c2)CCN3)CC1 | inconclusive: 0.708 µM [inhibitor, partial curve] | – |
| CC(C)(C)OC(=O)N1CCC(c2c(C(=O)N3CCN(c4ccccc4F)CC3)cnn2-c2ccccc2Cl)CC1 | active: 12.6 µM | – |
| Cc1cc(=O)n(CC(=O)Nc2ccc(C(C)C)cc2)c(N2CCN(c3ccccc3)CC2)n1 | inconclusive: 12.6 µM [inhibitor, single point] | – |
| COc1cc(Cl)c(NC(=O)CCc2nc3cccnc3n2-c2ccccc2)c(OC)c1 | inconclusive: 10 µM [inhibitor, single point] | – |
| CCCc1nnsc1C(=O)N[C@@H]1COCC[C@@H]1OCC1CC1 | inactive | – |
| Cc1nnc(N2CCCC(C(=O)NCCN(C)C)C2)c2nn(-c3ccccc3)c(C)c12 (stereo not given) | inactive | – |
| CCOc1ccc(CNCc2c(C(=O)O)c(C)n(Cc3ccc(C)cc3)c2C)cc1 | inconclusive: 20 µM [inhibitor, partial curve, poor fit] | – |
| Cc1ccc(C(=O)Nc2ccc(C(O)[C@H]3COCC(=O)N3Cc3ccccc3F)cc2)cc1 (stereo not given in full) | inactive | – |
| O=C(NCC1CCCO1)c1ccnc(-c2nnc3ccc(Nc4ccccc4)nn23)c1 (stereo not given) | inconclusive: 14.1 µM [inhibitor, single point] | – |
| COc1ccc(-c2nc3sc(CCNC(=O)Cc4ccc(F)cc4)c(C)n3n2)cc1 | inconclusive: 17.8 µM [inhibitor, single point] | – |
| Cc1ccsc1C(=O)N1CCC(c2noc(-c3cnccn3)n2)C1 (stereo not given) | – | inactive [at 5.79 µM] |
| Cc1ccc(-c2nnc(Nc3ccc(C(N)=O)cc3)c3ccccc23)cc1S(N)(=O)=O | inconclusive: 15.8 µM [inhibitor, single point] | – |
| O=C(NCc1ccc(F)cc1)c1nc(-c2ccc(F)cc2)c2ccccn12 | inconclusive: 8.91 µM [inhibitor, single point] | – |
| CC1CCCN(C(=O)c2cc(-c3cnn(CCO)c3)nc3cc(Cl)ccc23)C1 (stereo not given) | inconclusive: 8.91 µM [inhibitor, partial curve, poor fit] | – |
| CC1(c2ccccc2)N(Cc2ccccc2C#N)C(=O)OC12CCN(Cc1c[nH]c3ccccc13)CC2 (stereo not given) | inconclusive: 1.26 µM [inhibitor, partial curve, poor fit] | – |

| SMILES | Potency | outcome |
| --- | --- | --- |
| Cc1nc(N2CCC(NC(=O)Cc3cccs3)CC2)cc(C(F)(F)F)n1 | inactive | – |
| Cc1nc(-c2ccc(N(C)C)cc2)cc([C@H]2CN3CC[C@H]2C[C@@H]3COC(=O)Nc2ccccc2)n1 | inconclusive: 2.82 µM [inhibitor, single point] | – |
| CCCS(=O)(=O)N1CCC(Cc2ncc(C)n2Cc2ccc(F)cc2)CC1 | inconclusive: 1.58 µM [inhibitor, full curve, poor fit] | – |
| COc1ccccc1NC(=O)N1CCC2(CC1)SCC(=O)N2Cc1ccco1 | inactive | – |
| O=C1CO[C@H]2CCN(Cc3ccccc3F)CC[C@@H]2N1Cc1ccccc1 | inconclusive: 8.91 µM [inhibitor, partial curve] | – |
| CC1CCN(Cc2ccc(C(=O)N[C@@H]3CCNC[C@H]3O)o2)CC1 | inactive | – |
| O=C(NCCCN1CCN(c2ccc(F)cc2)CC1)c1cc2c(Cl)nc3ccccc3c2s1 | inconclusive: 3.16 µM [inhibitor, full curve, poor fit] | – |
| O=C([C@@H]1C[C@H](Oc2cccnc2)CN1C(=O)c1ccncc1)N1CCCC1 | inactive | – |
| CC(C)c1ccc(-c2noc(SCC(=O)N3CCCCC3C)n2)cc1 (stereo not given) | active: 2.24 µM | – |
| CCC(=O)N1CCc2c(C(=O)Nc3ccc(OC)cc3OC)cccc21 | inactive | – |
| CC(C)CCNC(=O)N(C)CC1CCOCC1 | inconclusive: 15.8 µM [inhibitor, single point] | – |
| CCN1c2cc(C(=O)Nc3ccccc3C)ccc2C(=O)N2CCCCCC21 (stereo not given) | inconclusive: 6.31 µM [inhibitor, partial curve, poor fit] | – |
| COc1cc(-c2[nH]ncc2CN(CCO)Cc2ccccc2)cc(OC)c1OC | inconclusive: 17.8 µM [inhibitor, single point] | – |
| CCN1C(=O)C2(CCN(S(=O)(=O)c3ccc(F)c(C)c3)CC2)c2ccccc21 | inconclusive: 11.2 µM [inhibitor, single point] | – |
| CCc1ccccc1NC(=O)Cn1cccc1-c1nc(-c2ccc(OC)c(F)c2)no1 | inconclusive: 1.41 µM [inhibitor, partial curve, poor fit] | – |
| Cn1ccnc1CN1CCN(C(C(=O)O)c2cccc3c2OCC3)CC1 (stereo not given) | inactive | – |
| CN(C)C(=O)c1cccn2nccc12 | inactive | – |
| CCOC(=O)c1c(Nc2ccc(O)cc2)nnc(-c2ccccc2)c1-c1ccccc1 | inconclusive: 17.8 µM [inhibitor, single point] | – |
| COCCc1nc(CNC(=O)c2ccc3nc(C4CCCCC4)oc3c2)no1 | inactive | – |
| COCCn1c(C)cc(C(=O)NCC(=O)N2CCCCCNC(=O)CC2c2ccccc2)c1C (stereo not given) | inconclusive: 10 µM [inhibitor, single point] | – |
| COc1cccc(-c2[nH]cnc2-c2ccccc2)c1OCCCN(C)C | inconclusive: 7.94 µM [inhibitor, partial curve] | – |
